Laboratory results as given in the supplement of paper PMC5499739.
The full ranking holds about 16,000 sequences; the median of “Z-score” is about -0.37, and the highest 2% start at about 3.1. This is one part of the list.

Each sequence was assayed on RBM10 RRM1-ZnF-RRM2 (GST-tagged construct) (assay: RNAcompete 7-mer binding Z-score; higher = stronger binding preference).
Method in brief: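 Each heptamer motif was given a one-sided Z-score for enrichment across the probes that contained it. GST-tagged RBM10 constructs (20 pmol) were combined with 1.5 nmol of a designed pool of 241 399 RNAs of up to 41 nt, transcribed from microarray-derived DNA templates. Binding took place in 1 ml Hepes pH 7.8 buffer containing KCl, NaCl, glycerol, DTT, BSA and glutathione Sepharose beads for 30 min at 4°C. After four 2-min washes at 4°C, bound RNA was identified by microarray hybridisation.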

Sequence | RNAcompete 7-mer binding Z-score
AGAUAAC | -0.34
UGGUUGC | 0.312
GGGACGC | 1.41
UCAUAAA | -0.413
UCGUUUG | -0.409
GCUACCU | -0.825
GGGACCC | 0.712
UCAACUA | -0.697
ACAUCGA | -0.402
GCGUGUG | 0.618
ACCUGCC | -1.04
GUGCCAG | 0.272
UUGAUAU | -0.588
GCGAUGU | 0.33
UGUCCAC | -0.606
ACGCCAA | -0.65
GCGGAAG | 1.8
CUCUGAC | -0.774
CCAAGGU | 0.253
ACUAUAC | -0.624
UCUUUUA | -0.628
GCAUUAU | -0.282
GUUCUAA | -0.595

Sequence | RNAcompete 7-mer binding Z-score
UGCAGAG | 0.567
AGUUUGU | -0.271
GCCAUCA | -0.675
GGCUAUU | -0.173
CUCAAAA | -0.719
GUCGCUC | -0.391
UUCUGCU | -0.868
ACCUGGA | -0.329
GCAGGGA | 2.94
UAUGUCA | -0.191
CCGUUAG | -0.519
GAGUGUC | -0.129
CCUUACU | -0.916
GGCAUUC | -0.202
UUCUAAC | -0.73
GAGAACC | 0.0058
CUGUGUC | -0.646
CCUGCCG | -0.759
UGGUCCU | -0.486
AAACUGC | -0.57
UAAUUAC | -0.559
AGAGACA | 0.00944
UUUAAGC | -0.803

Sequence | RNAcompete 7-mer binding Z-score
CCUAGCG | -0.559
AAAGAAC | -0.0343
AGUUUCU | -0.643
GUCGUGA | 0.202
CUGCGCA | -0.573
CAGACUA | -0.428
CCCAAUA | -0.759
CACACAG | -0.133
CCGGCCA | -0.712
UCUGCCC | -0.752
CAGAAUC | -0.318
CAUCUUA | -0.708
CAUCCCU | -0.69
ACGCCAC | -0.675
CGCGAUA | -0.187
GGAUAUA | 1.27
CAACAUA | -0.373
GCCGCAA | -0.442
UGUGUUC | -0.588
UCGGCAU | -0.409
ACCACGA | -0.307
AGGCUUG | -0.253
CCAAUUC | -0.672

Sequence | RNAcompete 7-mer binding Z-score
AUCCAUG | -0.307
UCUUUUG | -0.632
UAUGACG | -0.0925
CGUACUC | -0.562
AUGGGCA | 2.7
AUACGCG | -0.377
CCGUACC | -0.588
CUACCGA | -0.562
AUAUUUC | -0.694
ACUAAAA | -0.643
CAUCCGC | -0.817
ACCUAAA | -0.81
GGCCUAC | -0.697
UCCACUU | -0.854
CUGUUAG | -0.526
CAUGCGC | -0.664
CGACAAU | -0.428
AUUGGUG | 1.84
GGGGUGU | 3.53
ACUCACC | -0.77
GUUAGUC | -0.337
ACCUUCG | -0.861
CUAGCGA | -0.34

Sequence | RNAcompete 7-mer binding Z-score
AGCGCGU | -0.136
AUGUGUU | -0.133
CCAAAUC | -0.639
CUAAUUU | -0.919
ACUGUCA | -0.715
AUGCUGU | -0.613
CUAAUUC | -0.795
UUAGAGC | -0.296
UCGCGGG | 1.13
AAUGGGA | 4.69
UGUAAAA | -0.118
GACGCGU | -0.0889
CCUGUCC | -0.817
ACUCUCG | -0.894
GUACUGA | 0.00944
GAAAAGU | 0.563
UGUCAGU | -0.0634
GGCACAC | 0.108
CUCUCUG | -0.744
AUCGCAG | -0.3
CUACUCU | -0.803
